According to the supplement of paper PMC4967469:
pIC50: −log10 of the molar value. By IC50 is meant the dose at which the fit gives 50% viability; a limit (>, <) means that the fit lies beyond the doses tested. AUC sums up the same curve from the lowest dose to the 256-fold higher top dose; the more sensitive the line, the further below 1. For some assays here: The top dose, if marked as inferred, was derived from the fitted curves, not read from the paper.

Experiments:
Test in all cases: Viability of human cancer cell lines after 72 h of drug (GDSC screen)
Sorafenib = compound: CNC(=O)c1cc(Oc2ccc(NC(=O)Nc3ccc(Cl)c(C(F)(F)F)c3)cc2)ccn1 [Sorafenib]; conditions: top dose 4 µM
Protocol: (§1)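 Human cancer cell lines in 384-well plates, medium with 10% serum, drug for 72 h over a 256-fold dose range (nine 2-fold or five 4-fold steps up to the top dose). Adherent lines were fixed and stained with the nucleic acid dye Syto60, suspension lines read with resazurin; signal relative to control wells, capped at 0 and 100%. One two-parameter sigmoid per drug and line, fitted in a mixed model over all curves with the slope shared within a line.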

XMD14-99 = compound: COc1cc(N2CCN(C)CC2)ccc1Nc1nc(N)c(C(=O)c2c(Cl)cccc2Cl)s1 [XMD14-99]; conditions: top dose 10.24 µM; top dose inferred
Protocol: as §1

FH535 = compound: Cc1cc([N+](=O)[O-])ccc1NS(=O)(=O)c1cc(Cl)ccc1Cl [FH535]; conditions: top dose 32 µM; top dose inferred
Protocol: as §1

A-443654 = compound: Cc1n[nH]c2ccc(-c3cncc(OC[C@@H](N)Cc4c[nH]c5ccccc45)c3)cc12 [A-443654]; conditions: top dose 1.024 µM; top dose inferred
Protocol: as §1

AT-7519 = compound: O=C(NC1CCNCC1)c1n[nH]cc1NC(=O)c1c(Cl)cccc1Cl [AT-7519]; conditions: top dose 10.24 µM; top dose inferred
Protocol: as §1

Dasatinib = compound: Cc1nc(Nc2ncc(C(=O)Nc3c(C)cccc3Cl)s2)cc(N2CCN(CCO)CC2)n1 [Dasatinib]; conditions: top dose 1.28 µM
Protocol: as §1

Cell Line	AUC (Sorafenib)	pIC50 (Sorafenib)	AUC (XMD14-99)	pIC50 (XMD14-99)	AUC (FH535)	pIC50 (FH535)	AUC (A-443654)	pIC50 (A-443654)	AUC (AT-7519)	pIC50 (AT-7519)	AUC (Dasatinib)	pIC50 (Dasatinib)
BL-41 (Burkitt lymphoma, suspension)	0.9	5.53	0.956	< 4.99	0.7	5.21	0.553	7.06	0.192	6.97		
CHP-126 (neuroblastoma, suspension)	0.923	< 5.40	0.892	< 4.99	0.901	< 4.49	0.726	6.54			0.987	< 5.89
D-247MG (glioma, adherent)	0.782	5.63	0.98	< 4.99			0.863	< 5.99	0.961	< 4.99	0.804	6.02
D-263MG (glioma, adherent)	0.921	< 5.40	0.983	< 4.99			0.819	6.13	0.845	5.01	0.72	6.41
D-392MG (glioma, adherent)	0.775	5.66	0.965	< 4.99	0.854	< 4.49			0.71	5.50		
D-542MG (glioma, adherent)	0.865	< 5.40	0.983	< 4.99	0.342	6.18			0.976	< 4.99		
ECC12 (stomach, suspension)	0.945	< 5.40										
GA-10 (Burkitt lymphoma, suspension)	0.807	5.77					0.445	7.33			0.039	> 8.30
IST-MEL1 (melanoma, adherent)	0.89	< 5.40	0.978	< 4.99	0.679	5.15	0.731	6.47	0.7	5.58		
JURL-MK1 (chronic myeloid leukaemia, suspension)	0.92	< 5.40	0.948	< 4.99	0.752	4.97			0.551	6.06		
KARPAS-231 (B-cell leukaemia, suspension)	0.888	5.56	0.981	< 4.99	0.676	5.27	0.488	7.22			0.195	7.87
KCL-22 (chronic myeloid leukaemia, suspension)	0.909	< 5.40	0.921	< 4.99	0.826	4.82	0.783	6.44	0.345	6.59		
LS-411N (large intestine, adherent)	0.875	< 5.40	0.966	< 4.99	0.623	5.33	0.52	7.13	0.408	6.47		
MC116 (B-cell lymphoma, suspension)	0.975	< 5.40	0.999	< 4.99	0.594	5.47	0.659	6.81	0.327	6.61		
MOLT-13 (T-cell lymphoblastic leukaemia, suspension)	0.975	< 5.40	0.81	5.34					0.44	6.35		
NB12 (neuroblastoma, adherent)	0.939	< 5.40	0.926	< 4.99	0.677	5.13			0.746	5.37		
NB17 (neuroblastoma, adherent)	0.975	< 5.40	0.847	5.03			0.57	6.99	0.95	< 4.99	0.743	6.35
NCI-H128 (small cell lung carcinoma, suspension)	0.95	< 5.40					0.929	< 5.99			0.966	< 5.89
NCI-H226 (lung squamous cell carcinoma, adherent)	0.984	< 5.40	0.985	< 4.99	0.775	4.88	0.977	< 5.99	0.758	5.43		
RC-K8 (B-cell lymphoma, suspension)	0.92	< 5.40	0.993	< 4.99	0.779	4.95			0.743	5.55		
RL95-2 (endometrium, adherent)	0.943	< 5.40	0.983	< 4.99			0.351	7.60	0.823	5.22	0.456	7.22
Raji (Burkitt lymphoma, suspension)	0.96	< 5.40	0.99	< 4.99	0.717	5.11	0.761	6.47	0.45	6.33		
SK-N-FI (neuroblastoma, adherent)	0.934	< 5.40	0.987	< 4.99	0.825	4.72	0.824	6.22	0.953	< 4.99		
SKM-1 (haematopoietic neoplasm, suspension)	0.975	< 5.40					0.951	< 5.99			0.939	< 5.89
ST486 (Burkitt lymphoma, suspension)			0.894	5.00	0.651	5.30	0.694	6.68	0.148	7.21	0.937	< 5.89
SU-DHL-4 (B-cell lymphoma, suspension)	0.9	5.60	0.982	< 4.99	0.583	5.50	0.51	7.17	0.296	6.69		
SU-DHL-6 (B-cell lymphoma, suspension)			0.944	< 4.99	0.787	4.99	0.41	7.41	0.141	7.11	0.098	8.15
